{"source": "paper PMC5864733", "about": "(Nature Communications, 2018)", "proteins": {"B1": {"name": "CesT-Cdel (residues 1-145) (domain or fragment)", "chain": "MSSRSELLLDRFAEKIGVGSISFNENRLCSFAIDEIYYISLSDANDEYMMIYGVCGKFPTDNPNFALEILNANLWFAENGGPYLCYESGAQSLLLALRFPLDDATPEKLENEIEVVVKSMENLYLVLHNQGITLENEHMKIEEIS", "notes": "source: E. coli BL21(DE3), purified (Ni-NTA, gel filtration); not shown: His6, N-terminal, kept"}}, "biological_target": "the molecule itself", "assay": "SEC"}
{"protein": "B1", "values": [{"measurement": "stoichiometry N", "value": 2}]}
